# Measured values reported in publication PMC4336329 (PLoS ONE, 2015).
# Screen size: about 310,000 compounds; about 14,000 (4.5%) showed an effect of 50% or more. Effects have a minus sign here. Some of the results follow.
# Target: human ether-à-go-go-related gene (hERG) potassium channel (human, UniProt Q12809)
# Assay: primary screen, population patch clamp on CHO cells stably expressing hERG
# 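Also: peak tail current of the secondary pulse compared with the same well before compound.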
# human ether-à-go-go-related gene (hERG) potassium channel, sequence (Q12809 whole entry, looked up): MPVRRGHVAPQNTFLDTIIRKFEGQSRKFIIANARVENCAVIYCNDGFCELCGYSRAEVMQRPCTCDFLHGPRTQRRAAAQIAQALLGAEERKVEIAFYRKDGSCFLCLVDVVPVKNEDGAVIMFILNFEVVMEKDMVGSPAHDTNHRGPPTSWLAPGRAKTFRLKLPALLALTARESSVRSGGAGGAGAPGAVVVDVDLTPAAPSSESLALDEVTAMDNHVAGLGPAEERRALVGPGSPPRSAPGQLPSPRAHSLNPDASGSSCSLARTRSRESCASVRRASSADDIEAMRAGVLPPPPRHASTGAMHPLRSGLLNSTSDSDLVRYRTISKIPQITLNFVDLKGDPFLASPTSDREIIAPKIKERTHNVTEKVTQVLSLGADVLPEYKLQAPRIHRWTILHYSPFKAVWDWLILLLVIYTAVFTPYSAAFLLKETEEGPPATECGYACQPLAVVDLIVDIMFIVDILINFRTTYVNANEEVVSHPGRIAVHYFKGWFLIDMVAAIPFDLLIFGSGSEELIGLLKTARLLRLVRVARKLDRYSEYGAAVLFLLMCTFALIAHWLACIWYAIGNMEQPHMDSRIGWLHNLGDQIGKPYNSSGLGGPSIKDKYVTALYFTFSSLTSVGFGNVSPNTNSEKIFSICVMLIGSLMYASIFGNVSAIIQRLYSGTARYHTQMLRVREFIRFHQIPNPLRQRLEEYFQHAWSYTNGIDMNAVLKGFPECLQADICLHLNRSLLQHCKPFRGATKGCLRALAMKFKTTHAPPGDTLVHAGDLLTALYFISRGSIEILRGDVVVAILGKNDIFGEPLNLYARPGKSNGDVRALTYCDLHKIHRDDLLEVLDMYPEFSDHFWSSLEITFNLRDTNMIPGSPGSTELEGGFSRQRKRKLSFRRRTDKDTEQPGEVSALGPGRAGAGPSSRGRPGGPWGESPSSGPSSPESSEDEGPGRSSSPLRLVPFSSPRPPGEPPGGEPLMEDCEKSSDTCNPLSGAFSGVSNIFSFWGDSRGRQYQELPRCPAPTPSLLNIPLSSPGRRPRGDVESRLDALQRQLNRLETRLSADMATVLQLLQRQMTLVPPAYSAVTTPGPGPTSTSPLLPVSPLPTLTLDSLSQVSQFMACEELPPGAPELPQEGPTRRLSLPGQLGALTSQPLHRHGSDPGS
row,SMILES,"hERG current change (%, negative = inhibition) at 10uM"
1,CCS(=O)(=O)N1CCCC(C(=O)NC2CCCCC2)C1 (centres unmarked),17.4%
2,Cc1c(C(=O)N2CCCc3ccccc32)oc2ccccc12,10%
3,CCOC(=O)N1CCC(NC(=O)C2=CCN(S(=O)(=O)c3ccccc3)CC2)CC1,-1.74%
4,CCN(CC)C(=O)C(=O)Nc1ccc(Oc2ccccc2)cc1,-7.81%
5,CCOC(=O)c1cccc(NS(=O)(=O)c2c(C(=O)N3CCCCCC3)c(C)n(C)c2C)c1,-19.1%
6,CC(=O)Nc1ccc(NC(=O)C/C(C)=N/NC(N)=S)cc1,21.3%
7,CCCOc1ccc(CN(CCO)CCO)cc1C(=O)OC,6.82%
8,COC(=O)c1[nH]c2cc(OC)ccc2c1NC(=O)CCN1CCCCC1,-20.5%
9,COC(=O)c1ccc(NS(=O)(=O)c2ccc(SC)cc2)cc1,-2.34%
10,COc1ccccc1C/C(N)=N/OC(=O)COc1cccc2ccccc12,0.495%
11,Cc1n[nH]c(=O)n1-c1ccc(C(C)(C)C)cc1,23%
12,COc1ccc(CNC(=O)c2ccc(CS(=O)(=O)c3ccccc3C)o2)cc1,-12.3%
13,COCCNC(=O)CCc1c(C)nc2c(c(C)nn2-c2ccc(C)cc2)c1C,-17.6%
14,Oc1c(C=C2N=c3ccccc3=N2)sc(=S)n1-c1ccc(F)cc1 [17401255],17.9%
15,CC(C)S(=O)(=O)c1csc(NC(=O)Nc2ccc(Cl)cc2)c1,5.92%
16,Cc1cc(N2CCCC2)ccc1/C=C1/C(=O)N(C)C(=S)N1C,12.6%
17,COc1cc(CNCCSc2nnnn2C)cc(OC)c1OC.Cl,-2.79%
18,CC1=C(C(N)=O)C(c2cccc(O)c2)n2nc(CCCO)nc2N1 (centres unmarked),13.1%
19,CCCCCSc1cc(OC)c(CCN(C)C)cc1OC.O=C(O)/C=C\C(=O)O,-57.9%
20,COCCn1c(SCC(=O)N2CCCC2=O)nc2sc(C)c(C)c2c1=O,-11.9%
21,Cc1c(C(=O)Nc2ccc3c(c2)OCCO3)cnn1C,-6.25%
22,NC(=O)c1ccc(-n2nnnc2Oc2ccccc2C(=O)N2CCOCC2)cc1,15.8%

row,SMILES,"hERG current change (%, negative = inhibition) at 10uM"
1,Cc1ccccc1-n1c(=O)n(CCc2ccccc2)c(=O)c2[nH]cnc21,12.8%
2,Cl.O.O=C1CC(=C(c2ccccc2)c2ccccc2)C(=O)N1CCN1CCN(c2cccc(Cl)c2)CC1,-5.67%
3,O=C1C2C3c4ccccc4C(c4ccccc43)C2C(=O)N1c1cccnc1 (centres unmarked),-5%
4,Cn1c(=O)c2cc(S(=O)(=O)Nc3cccc(F)c3)ccc2n(C)c1=O,-1.69%
5,CCOC(=O)c1ccc2ncc(C(=O)OCC)c(NCCN3CCOCC3)c2c1,-48.5%
6,Nc1ccc(C(=O)N2CCCC2)cc1,5.85%
7,COc1ccc(NC(=O)NC2CCN(C(C)C)CC2)c(OC)c1,-8.9%
8,O=C(NCc1ccccc1)C1=C[C@H](c2ccccc2)C[C@H](OCc2ccc(CO)cc2)O1,-11.2%
9,Cc1cc(NC(=O)c2ccccc2)n(C)n1,15.1%
10,CC(Oc1ccc(Cl)cc1Cl)C(=O)NCCCN(C)C (centres unmarked),-6.15%
11,O=c1oc2ccccc2c(NC(c2ccccc2)c2ccccc2)c1[N+](=O)[O-],3.46%
12,CCN1CCN(C2=NC(=O)/C(=C/c3ccc(C)o3)S2)CC1,-20.9%
13,CCC(C)N(C(=O)Cn1cnc2c1c(=O)n(C)c(=O)n2C)C1CCS(=O)(=O)C1 (centres unmarked),17.5%
14,O=[N+]([O-])c1ccc(Cl)c(/C=N/N2CCN(Cc3ccc(Cl)cc3)CC2)c1,4.9%
15,Cc1nnc(NCCc2ccccc2)c2ccccc12,-18.1%
16,C=CCOc1c(Br)cc(CNn2c(C)n[nH]c2=S)cc1OC,13%
17,CC(C(=O)NCc1cccnc1)c1ccc([N+](=O)[O-])cc1 (centres unmarked),-42.5%
18,Cc1ccccc1S(=O)(=O)Cc1ccc(C(=O)NCCCN2CCC(C)CC2)o1,-36.2%
19,CCOC(=O)c1cnc(SCC(=O)NNC(=O)c2ccco2)nc1N,18.3%
20,COc1ccc(OCCNC(=S)Nc2cccc3ccccc23)cc1,3.79%
21,Cc1ccc(NC(=O)c2nnn(CC(=O)Nc3ccccc3)c2N)cc1C,-1.34%
22,CN(Cc1c(C(=O)N/N=C/c2cccc(Cl)c2)nnn1-c1nonc1N)c1ccccc1,-4.34%

row,SMILES,"hERG current change (%, negative = inhibition) at 10uM"
1,O=C(/C=C/c1ccccc1)N1CCN(c2ccc([N+](=O)[O-])c(N3CCOCC3)c2)CC1,-54.3%
2,COC(=O)c1c(NC(=O)c2nc3nc(C)cc(C(F)F)n3n2)sc2c1CCC2,5.97%
3,CC1(C)CC(=O)C2=C(C1)c1c(ccc3ccccc13)NC2c1ccc(C(=O)O)cc1 (centres unmarked),36.6%
4,Cc1ccc2c(c1)N(CC(=O)NCC1CCCO1)C(=O)CO2 (centres unmarked),12%
5,COc1ccc(NC(=S)N2CCc3ccccc3C2)cc1OC,9.77%
6,CC1=C(C#N)C(Nc2ccc(C)cn2)(C(F)(F)F)C(=O)N1 (centres unmarked),-15.2%
7,O=C(CCC(=O)N1CCOc2ccccc21)NC1CCCCCC1,-20.8%
8,Cc1cc(=O)oc2c3c(cc(OCC(=O)NCc4ccco4)c12)OC(C)(C)CC3,-13.5%
9,CCOC(=O)C1CCN(c2ncnc3c2cnn3-c2ccc(OC)cc2)CC1,-16.2%
10,CC1Oc2ccccc2N(CC(=O)NCCCN2CCOCC2)C1=O (centres unmarked),13%
11,O=C(c1ccc(Cn2c(=O)[nH]c3ccsc3c2=O)cc1)N1CCN(c2ccccc2)CC1,7.23%
12,CCc1c(C)sc(NC(=O)c2cc(C)on2)c1C#N,6.34%
13,C[C@@H](C(=O)NCC1CCCO1)N1C(=O)N2CCc3c([nH]c4ccccc34)[C@@]2(C)C1=O (some centres unmarked),-17.2%
14,CN(C)S(=O)(=O)c1cccc(NC(=O)COC(=O)CNC(=O)c2cccc([N+](=O)[O-])c2)c1,-39.6%
15,CN1CCN(CCCNC(=O)CN2C(=O)COc3ccccc32)CC1,-5.97%
16,COc1cc(/C=N/NC(=O)c2c(-c3ccccc3)noc2C)ccc1O,-10.9%
17,COc1ccc(C(=O)NCCc2ccccc2F)cc1OC1CCN(C(C)=O)CC1,4.19%
18,Cc1nnc(SCC(=O)NC2CC2)s1,19.5%
19,O=C(CNC(=O)c1ccco1)Nc1ccc(F)cc1,29.2%
20,CC1CCN(C(=O)CCN2C(=O)/C(=C/c3cccs3)SC2=S)CC1,2.87%
21,CC(CNCC1CCCO1)COc1cccc2ccccc12 (centres unmarked),-16.7%
22,COc1ccccc1C(=O)N/C(=C\c1cn(S(=O)(=O)N(C)C)c2ccccc12)C(=O)NCCCN1CCOCC1,-7.58%

row,SMILES,"hERG current change (%, negative = inhibition) at 10uM"
1,Cc1ccc(S(=O)(=O)c2nc(Nc3ccccc3C#N)sc2Cl)cc1,5.23%
2,Cc1cc(C)cc(NC(=O)Nc2cc(-c3ccccc3)nn2C)c1,18.1%
3,CC(=O)c1cccc(NC(=O)C23CC4CC(C2)CC(n2cncn2)(C4)C3)c1,5.88%
4,CC(=O)N1c2ccc(S(=O)(=O)NC(CC(=O)O)c3ccc(Br)cc3)cc2CC1C (centres unmarked),22.3%
5,CCOc1ccc(NC(=O)CN(C)C(=O)c2c(-c3ccccc3Cl)noc2C)cc1OCC,-7.11%
6,CC(=O)c1cccc(N(C(=O)CNC(=O)c2ccco2)C(C(=O)NC2CCCC2)c2ccco2)c1 (centres unmarked),2.79%
7,COc1ccc(S(=O)(=O)Nc2ccc3oc(C)c(C(C)=O)c3c2)cc1,12%
8,COc1ccc(-c2c(O)c(C#N)c(-c3ccccc3)n(-c3ccc(OC)cc3)c2=O)cc1,9.95%
9,O=C1Nc2ccc([N+](=O)[O-])cc2OC1CCN1CCN(Cc2ccc3c(c2)OCO3)CC1 (centres unmarked),-22.7%
10,COc1ccc(C2N(c3ccccc3)C(=S)N3CCCN23)cc1 (centres unmarked),8.17%
11,CN(C)c1oc(-c2ccccc2)nc1C#N,-6.61%
12,CCOc1cc(C2NN=C(c3ccccc3)S2)ccc1OCc1ccccc1Cl (centres unmarked),16.1%
13,O=C(CN(C(=O)CCC(=O)Nc1ccccn1)C1CCCC1)NCc1ccccc1,5.2%
14,C[C@@H](NC(=O)c1nc[nH]c1C(=O)N[C@@H](Cc1ccccc1)C(=O)OC(C)(C)C)c1ccccc1,12.3%
15,O=C1OC(=O)C2C1[C@@H]1CC[C@H]2O1 (some centres unmarked),4.05%
16,COc1ccc(/C=C(/NC(=O)c2ccccc2)C(=O)N2CCC(C)CC2)cc1,-38.4%
17,COCCN1C(=O)c2oc3c(C)cc(C)cc3c(=O)c2C1c1cccc(O)c1 (centres unmarked),-3.77%
18,Cc1c(CCOC(=O)c2ccc(N3CCOCC3)c([N+](=O)[O-])c2)sc[n+]1CC#N.[Cl-],-33.3%
19,COc1cccc(NC(=O)c2ccc(Cn3cc([N+](=O)[O-])cn3)o2)c1,-45.8%
20,CCOc1cccc(/C=C/c2ccc3ccccc3n2)c1OC(C)=O,16.3%
